Out of some 230,000 compounds screened, about 3,600 (1.6%) were called active. Inconclusive means that the source gave no clear call. Such entries were picked first, then a sample of the others. Calls follow the shape of the dose curve; as a rule, active = well fitted inhibition curve with a large enough effect (not every such curve was filed as active); inconclusive = small, poorly fitted or top-dose-only effect, or another doubt; inactive = no such curve, though single readings can be large or run the other way. Potencies of inconclusive entries are doubtful fits and often do not repeat.
These compounds were tested against Lysine-specific demethylase 4E (Homo sapiens) (UniProt B2RXH2) (assay: qHTS Assay for Inhibitors of Human Jumonji Domain Containing 2E (JMJD2E)). Details: JMJD2E catalytic domain, FDH-coupled NADH fluorescence (FDH is formaldehyde dehydrogenase); series mostly up to 57.1 µM.
UniProt B2RXH2, sequence (B2RXH2 whole entry, looked up, the tested form may be a part): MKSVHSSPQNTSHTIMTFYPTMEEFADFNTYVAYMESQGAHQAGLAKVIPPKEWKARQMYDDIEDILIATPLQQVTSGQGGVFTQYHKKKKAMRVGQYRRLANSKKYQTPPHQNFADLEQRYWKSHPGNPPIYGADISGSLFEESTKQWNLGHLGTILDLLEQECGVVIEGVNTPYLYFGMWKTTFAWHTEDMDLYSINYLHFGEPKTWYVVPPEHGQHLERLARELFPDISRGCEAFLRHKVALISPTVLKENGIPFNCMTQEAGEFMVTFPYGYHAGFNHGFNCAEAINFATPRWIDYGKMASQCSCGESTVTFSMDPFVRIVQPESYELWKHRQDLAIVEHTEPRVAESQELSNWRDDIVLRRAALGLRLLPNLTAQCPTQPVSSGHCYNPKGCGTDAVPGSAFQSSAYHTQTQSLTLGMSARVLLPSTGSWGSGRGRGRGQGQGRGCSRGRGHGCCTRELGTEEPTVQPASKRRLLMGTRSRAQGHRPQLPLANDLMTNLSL
CCc1c(C)c2ccc(O)c(CN(C)C)c2oc1=O was tested, and the Potency was inconclusive: 15.8 µM [inhibitor, partial curve].
For CCN1CCCC1Cn1c(-c2ccccc2)nc2c(NCCOC)nc(C)nc21 (stereo not given), the Potency was inconclusive: 35.5 µM [inhibitor, partial curve].
With CCc1cc2c(=O)c(-c3nc4ccccc4n3C)c(C)oc2c(CN2CCCCC2)c1O the Potency was inconclusive: 35.5 µM [inhibitor, partial curve].
For CC(=O)N1CC=C2C(C#N)=C(N)C(C#N)(C#N)C(C)C2C1 (stereo not given), the Potency was inconclusive: 25.1 µM [inhibitor, partial curve].
For C/C(=N\NC(=O)c1ccccc1O)C1C(=O)c2ccccc2C1=O, the Potency was inconclusive: 28.2 µM [inhibitor, single point].
In the case of O=C(CN1CCN(c2ccc(O)cc2)CC1)Nc1cc(S(=O)(=O)N2CCCC2)ccc1Cl, the Potency is reported as inconclusive: 17.8 µM [inhibitor, partial curve].
With COCc1cc(C)nc(OCC(=O)N/N=C/c2cccc(OC)c2)c1C#N the Potency was inconclusive: 31.6 µM [inhibitor, partial curve].
For COc1ccc2nc(NC(=O)C(NS(=O)(=O)c3cccs3)C(C)C)sc2c1 (stereo not given), the Potency was inconclusive: 39.8 µM [inhibitor, single point].
With COc1ccc2c(c1)CC/C(=C/c1ccco1)C2=O the Potency was inconclusive: 39.8 µM [inhibitor, single point].
In the case of NNC(=S)Nc1ccc(C(F)(F)F)cc1Cl, the Potency is reported as “inactive”.
In the case of COc1ccc(S(=O)(=O)NC2CCCCC2)cc1-n1cnnn1, the Potency is reported as “inactive”.
For Cc1csc(=Nc2ccc(S(=O)(=O)N3CCOCC3)cc2)n1Cc1ccco1, the Potency was “inactive”.
With COCCN=c1scc(-c2cc(OC)ccc2OC)n1/N=C/c1c[nH]c2ccccc12 the Potency was inconclusive: 22.4 µM [inhibitor, single point].
Cc1ccc2nc(-c3ccc(SCC(=O)N4CCc5ccccc54)nc3)[nH]c2c1 was tested, and the Potency was inconclusive: 20 µM [inhibitor, partial curve].
C=CCc1c(C)c(C#N)c2nc3ccccc3n2c1NCCN(C)C was tested, and the Potency was inconclusive: 28.2 µM [inhibitor, single point].
COCC(=O)Nc1nc2n(n1)C(c1ccc(Cl)cc1)CC(c1ccc(OC)cc1)N2 (stereo not given) was tested, and the Potency was inconclusive: 35.5 µM [inhibitor, partial curve].
For CC1=CC(c2ccccc2)n2nc(N3C(=O)CCC3=O)nc2N1 (stereo not given), the Potency was inconclusive: 28.2 µM [inhibitor, partial curve].
With COC(=O)c1sc(NC(=O)c2ccc(Cn3cc(Cl)cn3)o2)c(C#N)c1C the Potency was inconclusive: 31.6 µM [inhibitor, single point].
In the case of Cc1ccc(NC(=O)CSc2nnc3ccccn23)cc1, the Potency is reported as inconclusive: 39.8 µM [inhibitor, single point].
With O=c1cc(CSc2nnc(NC3CCCCC3)s2)nc2sccn12 the Potency was “inactive”.
With CC(=O)NCCn1c(C)cc2ccccc21 the Potency was inconclusive: 39.8 µM [inhibitor, single point].
For O=C(O)CCn1cc(C2CC(c3ccccc3)=NN2c2ccccc2)c(-c2ccccc2)n1 (stereo not given), the Potency was inconclusive: 25.1 µM [inhibitor, partial curve].
With O=C(NCCc1cn2ccccc2n1)c1cc(COc2ccc3ncccc3c2)on1 the Potency was “inactive”.
COc1cc(-c2n[nH]c(=O)o2)cc(OC)c1OC was tested, and the Potency was inconclusive: 31.6 µM [inhibitor, partial curve].
CC(=O)N1CCc2c(sc(NC(=O)C3CC3)c2-c2nc3ccccc3s2)C1 was tested, and the Potency was inconclusive: 28.2 µM [inhibitor, single point].
With COc1ccc(C2=NN(C(=O)COc3ncnc4ccccc34)C(c3ccco3)C2)cc1 (stereo not given) the Potency was inconclusive: 35.5 µM [inhibitor, partial curve].
COc1cc(NC(=S)N2CCN(C(=O)c3ccco3)CC2)c(OC)cc1Cl was tested, and the Potency was “inactive”.
With CCOC(=O)c1oc2ccccc2c1NC(=O)c1ccc2c(c1)OCO2 the Potency was inconclusive: 31.6 µM [inhibitor, single point].
For CCN1CCC(NC(=O)Nc2ccc(F)cc2F)CC1, the Potency was “inactive”.
With O=C(N/N=C/c1ccc(O)c(O)c1)c1cccc(S(=O)(=O)N2CCCCC2)c1 the Potency was active: 15.8 µM.
With Oc1ccc(O)c(Cc2nc3ccccc3s2)c1 the Potency was inconclusive: 22.4 µM [inhibitor, single point].
For Cc1cc(CNC(=O)CC2C(=O)NCCN2Cc2ccccc2C(F)(F)F)nn1C (stereo not given), the Potency was inconclusive: 22.4 µM [inhibitor, single point].
With C/C=C/c1ccc(OC(C)=O)c(OC)c1 the Potency was “inactive”.
In the case of COCCN1CN(S(=O)(=O)c2ccc(Cl)cc2)c2nc3ccccc3nc21, the Potency is reported as inconclusive: 31.6 µM [inhibitor, single point].
O=C(Nc1ccc2ccccc2c1)/C(=C/c1cccc(Br)c1)NC(=O)c1ccco1 was tested, and the Potency was inconclusive: 39.8 µM [inhibitor, single point].
Cc1ccc(C2C(C(=O)c3cccs3)=C(O)C(=O)N2CCN2CCOCC2)o1 (stereo not given) was tested, and the Potency was inconclusive: 39.8 µM [inhibitor, single point].
With N#C/C(=C/c1cn(CC(=O)O)c2ccccc12)C(=O)Nc1ccccc1 the Potency was inconclusive: 31.6 µM [inhibitor, single point].
For CCN(CC)Cc1c(O)c(Cl)cc2c(C)c(C)c(=O)oc12, the Potency was inconclusive: 3.55 µM [inhibitor, full curve].
With COC(=O)C1=NNC2(c3ccc(C)cc3)C(=O)N(c3ccc(C)cc3)C(=O)C12 (stereo not given) the Potency was inconclusive: 35.5 µM [inhibitor, single point].
Cc1ccc(N=Nc2[nH]c3ccccc3c2O)cc1 was tested, and the Potency was “inactive”.
For COc1ccc(-c2[nH]ncc2/C=C(/C#N)C(=O)NC2CCCCC2)cc1, the Potency was inconclusive: 39.8 µM [inhibitor, single point].
For CCN(CC)CC(=O)Nc1cccc2c1C(=O)c1ccccc1C2=O, the Potency was “inactive”.
For Cc1cc(C(=O)CSc2nc3ccccc3n2CCC#N)c(C)n1Cc1cccs1, the Potency was “inactive”.
With Cn1c(=O)c2c(nc(/C=C/c3cccc(Cl)c3)n2C)n(C)c1=O the Potency was inconclusive: 11.2 µM [inhibitor, partial curve].
O=C(N/C(=C/c1ccc(Cl)cc1)c1nc2ccccc2[nH]1)c1ccco1 was tested, and the Potency was inconclusive: 39.8 µM [inhibitor, single point].
With CSc1ccccc1-c1nnc(-c2ccc(Cl)cc2)o1 the Potency was inconclusive: 31.6 µM [inhibitor, partial curve].
O=C(CCN1C(=O)c2ccccc2C1=O)Nc1ccc(-c2nc3ccccc3o2)cc1 was tested, and the Potency was inconclusive: 39.8 µM [inhibitor, single point].
With Cn1cccc1/C=N/NC(=O)CNc1cccc2ccccc12 the Potency was inconclusive: 31.6 µM [inhibitor, partial curve].
OCCN(Cc1ccccc1)Cc1ccccc1F was tested, and the Potency was inconclusive: 25.1 µM [inhibitor, single point].
For COc1ccc(NC(=O)C2CC(=O)N/C(=N/NC(=O)c3ccc(Cl)cc3)S2)cc1 (stereo not given), the Potency was inconclusive: 39.8 µM [inhibitor, single point].
Cc1ccc(CNC(=O)CCCNC(=O)c2ccc(Cl)cc2)n1C was tested, and the Potency was inconclusive: 25.1 µM [inhibitor, single point].
In the case of COc1ccc2[nH]c(=O)c(CN(C)C(=O)c3ccncc3)cc2c1, the Potency is reported as inconclusive: 28.2 µM [inhibitor, partial curve].
For CCCC(=O)Nc1cccc(-c2nc3cc(C)c(C)cc3o2)c1, the Potency was inconclusive: 7.94 µM [inhibitor, full curve].
In the case of CCOC(=O)NC(=O)/C(C#N)=C/c1ccc(N(C)C)cc1, the Potency is reported as “inactive”.
CC(=O)c1ccc2c3c(cccc13)CC2 was tested, and the Potency was inconclusive: 31.6 µM [inhibitor, partial curve].
For CCOC(=O)CC(=O)CSc1ccc2nnc(-c3ccc(C)cc3)n2n1, the Potency was inconclusive: 28.2 µM [inhibitor, single point].
With NC(=O)C1CCN(C(=S)c2cccs2)CC1 the Potency was “inactive”.
For CC(=O)NS(=O)(=O)c1ccc(NC(=O)/C=C/c2ccccc2)cc1, the Potency was “inactive”.
For COC(=O)c1cn(NC(=O)CCC2CCCC2)c(=O)c2ccccc12, the Potency was inconclusive: 39.8 µM [inhibitor, single point].
With CCOC(=O)C1CCN(c2c([N+](=O)[O-])c(C(Cl)Cl)nn2-c2ccccc2)CC1 the Potency was “inactive”.
O=C1c2ccccc2NC(c2ccc(O)cc2)N1/N=C/c1ccc(O)cc1 (stereo not given) was tested, and the Potency was inconclusive: 28.2 µM [inhibitor, single point].
With CCOC(=O)c1c(NC(=S)NC)sc2c1CC(C)(C)SC2 the Potency was inconclusive: 35.5 µM [inhibitor, single point].
CCOc1cc(/C=C2/SC(=S)NC2=O)ccc1OC(=O)c1ccco1 was tested, and the Potency was “inactive”.
In the case of O=C1COc2ccc(C(=O)/C=C/c3ccccc3)cc2N1, the Potency is reported as “inactive”.
O=C(N/N=C/C=C/c1cccc([N+](=O)[O-])c1)C(O)c1ccccc1 (stereo not given) was tested, and the Potency was “inactive”.
With CCC1(c2ccccc2)NC(=S)N(c2ccc(C)c(C)c2)N1 (stereo not given) the Potency was inconclusive: 35.5 µM [inhibitor, single point].
With O=C(CSc1nnc(-c2cc(-c3cccs3)nc3ccccc23)o1)NC1CCCCC1 the Potency was inconclusive: 10 µM [inhibitor, partial curve].
In the case of CCCN(C#N)c1nc(NCC)nc(NC(C)C)n1, the Potency is reported as “inactive”.
In the case of N/C(=N\c1nc2ccccc2o1)NC(=O)c1ccccc1NC(=O)c1ccccc1, the Potency is reported as inconclusive: 28.2 µM [inhibitor, partial curve].
In the case of COC(=O)c1cc(C(=O)OC)cc(N2C(=O)CC(N3CCN(c4ccccc4)CC3)C2=O)c1 (stereo not given), the Potency is reported as inconclusive: 39.8 µM [inhibitor, single point].
Also: nearly all actives have a fitted effect of over 50% in size.
Potency is read from the fitted curve at half-maximal effect; tags tell the direction and shape of the fitted curve.
